B1: LINE1-mini (parent)
chain: GGCAGAGCUCAACACAGCGUGGCAAAGUGGCUGUGGCUAGACUGCC

Read counts are not given, so values of variants with three or more changes are uncertain.

This data set covers variants of B1. As to the kind of experiment: self-cleavage, relative activity (ratio to wild type); higher = more cleavage; in vitro, sequencing; the parent is a self-cleaving ribozyme.
As to C13G G19A U20G G44A, the self-cleavage is 0.01.

As for C13U A24U C42U, the self-cleavage was determined as 0.1.

On to C13G C23A G33C, for which the self-cleavage was 0.03.

As for C13U A14C U32A C46A, the self-cleavage turned out to be 0.02.

Turning to C13G G30U U32A G40A C42U, the self-cleavage was 0.02.

In the case of C13U A16G G27U C42U, the self-cleavage amounted to 0.12.

As to C13U C15U G22A A24G, the self-cleavage is 0.07.

Regarding C13A G27C C31U, the self-cleavage amounted to 0.19.

Turning to C13A U28A C45G, the self-cleavage was determined as 0.06.

On to C13G A14C U20C G27U G33C, for which the self-cleavage was determined as 0.01.

C13G G21A U28A G30C U32C G35U: the self-cleavage is 0.02.

Turning to C13U A16G G36A, the self-cleavage was 0.2.

In the case of C13G G27A U38C, the self-cleavage is 0.

Consider C13G C42G C46A, for which the self-cleavage was determined as 0.04.

C13G G27U G33C: the self-cleavage turned out to be 0.01.

Regarding C13G G30C U32G G44U, the self-cleavage was 0.13.

For the variant C13G A16G G21C, the self-cleavage was determined as 0.

For C13G G30C U38G, the self-cleavage was 0.02.

With C13U A16G G27U A41C C42G G44C, the self-cleavage was 0.03.

Take C13U A14G G22U C23A: the self-cleavage was found to be 0.11.

Regarding C13U C15G G27U, the self-cleavage is 0.03.

As to C13U C18A G27A, the self-cleavage worked out at 0.03.

Regarding C13U A16C G19U U28G U32C, the self-cleavage turned out to be 0.06.

For C13A U28A C31U G33A C42U, the self-cleavage worked out at 0.04.

Consider C13A G22C C31A, for which the self-cleavage is 0.04.

On to C13G G17U G29A, for which the self-cleavage is 0.05.

For C13G G30U G35U, the self-cleavage is 0.63.

As to C13G A41U G44A, the self-cleavage was determined as 0.04.

In the case of C13G C23A C31A, the self-cleavage was determined as 0.03.

With C13A U28A U38C C45U, the self-cleavage is 0.07.

Take C13G G19A G30U: the self-cleavage was determined as 0.03.

Take C13G A14C G33U: the self-cleavage turned out to be 0.01.

In the case of C13A G27C U32G A39U, the self-cleavage was 0.19.

As for C13A G40U A41G U43C, the self-cleavage was found to be 0.06.

For C13U C18A G22U, the self-cleavage is 0.08.

Consider C13G G19U U20A G40A, for which the self-cleavage was 0.01.

As to C13U A14C C15U, the self-cleavage came to 0.17.

With C13U A39C C46U, the self-cleavage came out at 0.22.

For the variant C13G G21C G27A, the self-cleavage worked out at 0.28.

In the case of C13U A14G C37U, the self-cleavage was 0.14.

On to C13G G17C A25U C45G, for which the self-cleavage was found to be 0.01.

Consider C13G U20A U28G G30U C45G, for which the self-cleavage was 0.04.

For C13G A24U U34G, the self-cleavage is 0.14.

With C13G U32G G36C, the self-cleavage stood at 0.01.

For C13A G21A C31G C46G, the self-cleavage was 0.02.

For the variant C13G G21C A24U U28C G29C C42U, the self-cleavage is 0.03.

On to C13G A26U G33A G40U, for which the self-cleavage amounted to 0.01.

As to C13U A14G A25G G40A, the self-cleavage turned out to be 0.04.

Consider C13G C42U U43A, for which the self-cleavage was 0.18.

In the case of C13U C15G C23U A26G C31U, the self-cleavage was found to be 0.65.

Take C13G A16C G33U: the self-cleavage is 0.03.

As to C13A G22A C31A U43A, the self-cleavage came out at 0.02.

Consider C13U A26U G27C, for which the self-cleavage amounted to 0.14.

Regarding C13U A25U G29C G30A G44U, the self-cleavage came out at 0.17.

As for C13A U28C G30C G36U C46U, the self-cleavage is 0.13.

On to C13U A16U G33A C37U, for which the self-cleavage was determined as 0.26.

With C13U C15G C42G, the self-cleavage stood at 0.02.

Regarding C13U C15U G22U A24C, the self-cleavage is 0.06.

Take C13G U32G U34A: the self-cleavage turned out to be 0.03.

With C13U C15U G44C, the self-cleavage worked out at 0.23.

For the variant C13G G35U A39U, the self-cleavage amounted to 0.25.

In the case of C13G C18A G21C G22U G33U, the self-cleavage worked out at 0.02.

Turning to C13G A25U U34A G36C, the self-cleavage came out at 0.05.

Take C13G U20G C46A: the self-cleavage was determined as 0.08.

On to C13G C18G U28A C42U G44A, for which the self-cleavage worked out at 0.03.

Take C13G C23G G29C: the self-cleavage was 0.35.

Consider C13A G21U C42G, for which the self-cleavage stood at 0.1.

As for C13U A26G U28C, the self-cleavage was 0.06.

C13U A24G U38A C42G C45A: the self-cleavage is 0.

As for C13G U32G G33U C46A, the self-cleavage turned out to be 0.03.

Consider C13U A16U C23G C37G, for which the self-cleavage stood at 0.01.

On to C13A G21A A25U, for which the self-cleavage was 0.18.

Consider C13G G30A U32C C42A, for which the self-cleavage stood at 0.08.

Turning to C13G A25G A41U C42A, the self-cleavage is 0.02.

In the case of C13G G21A U28G G29U U32A, the self-cleavage is 0.19.

On to C13U A16U U38G A39G, for which the self-cleavage is 0.16.

On to C13A G21A A26U U38A A41U, for which the self-cleavage is 0.01.

With C13G U20C G29U G33U C46U, the self-cleavage came out at 0.11.

Turning to C13G U28G U34C C46U, the self-cleavage was 0.04.

With C13G A39C C42A G44U, the self-cleavage turned out to be 0.04.

C13U A14U G17C A41U C45G: the self-cleavage was 0.04.

As for C13G C23U C45A, the self-cleavage amounted to 0.05.

For C13G G29C C37A, the self-cleavage worked out at 0.1.

Consider C13U A14U G27A, for which the self-cleavage came to 0.06.

For C13G G30U C45A, the self-cleavage worked out at 0.32.

As to C13U C15G A24C A26C G27U, the self-cleavage was 0.01.

For C13U A14U U20G U34G, the self-cleavage turned out to be 0.03.

As to C13U A16G U20C C45U, the self-cleavage was 0.01.

Turning to C13U A14U G27C G35C, the self-cleavage is 0.04.

With C13G C23A G27A U28G G40A, the self-cleavage stood at 0.03.

With C13A G30C G33A, the self-cleavage turned out to be 0.27.

For the variant C13A G21U G29C, the self-cleavage worked out at 0.03.

As to C13G C15A A26C G30A G33C, the self-cleavage came to 0.08.

C13G C23A A24U: the self-cleavage came out at 0.

C13A U20C G21U G44A: the self-cleavage came out at 0.05.

Turning to C13G C37G C46A, the self-cleavage was found to be 0.01.

As for C13U A14U C45U, the self-cleavage came to 0.04.

For C13G G17U A39C G40U, the self-cleavage is 0.01.

With C13G C15A G22U A24U A41C, the self-cleavage worked out at 0.16.

For C13G U28A C37U, the self-cleavage amounted to 0.11.

On to C13A G22C U38A G44C, for which the self-cleavage was determined as 0.03.

Take C13G A16U G19A U32A: the self-cleavage is 0.06.

With C13A U28G A39U C46U, the self-cleavage came out at 0.01.

C13G A39C C42A: the self-cleavage was 0.04.

Regarding C13G C15A G17A U20A, the self-cleavage stood at 0.02.

On to C13G U32G G33U C42U C45U, for which the self-cleavage was 0.1.

C13G U20G G27C U28G C31G: the self-cleavage was 0.02.

Consider C13A G27U C31G G35U G44A, for which the self-cleavage stood at 0.02.

In the case of C13U C18A G44U, the self-cleavage was 0.09.

C13G A14C G21U U28G G29A C42G G44C: the self-cleavage came out at 0.01.

For C13G A25G G29C C42U, the self-cleavage turned out to be 0.08.

In the case of C13G G33U G44U, the self-cleavage was 0.08.

Turning to C13G G19C C23U C37G G44A, the self-cleavage amounted to 0.05.

Turning to C13G G17A U28A, the self-cleavage is 0.06.

For C13G C18A G27A A41U, the self-cleavage amounted to 0.23.

Take C13G G21U G36A: the self-cleavage worked out at 0.15.

With C13G U28C U34G, the self-cleavage was found to be 0.02.

With C13G U28C G44C, the self-cleavage worked out at 0.05.

C13A U32G A39U: the self-cleavage is 0.15.

For C13G G33C G36C, the self-cleavage amounted to 0.05.

As for C13U C15U C31A, the self-cleavage stood at 0.06.

For C13G G40C C42U, the self-cleavage was determined as 0.13.

On to C13G A25U U38C, for which the self-cleavage amounted to 0.03.

Regarding C13U A26U U38A, the self-cleavage was 0.08.

Take C13G A26U U38C: the self-cleavage came out at 0.01.

Take C13G A14C C23G G27A G33U C45G: the self-cleavage was 0.01.

C13U A16U A25C C31U C37A A39C C45A: the self-cleavage was 0.02.

C13G U20A C37U: the self-cleavage came out at 0.07.

Turning to C13G G22U C23A A25C C37G, the self-cleavage was 0.01.

As for C13G A25C C37A G40A, the self-cleavage amounted to 0.32.

Consider C13G G29U C45G, for which the self-cleavage came out at 0.03.

For C13U C15U U20G G44C, the self-cleavage was 0.05.

Regarding C13U A16C C45G, the self-cleavage was found to be 0.01.

In the case of C13A U38A U43C, the self-cleavage stood at 0.15.

C13G U38G G40C: the self-cleavage is 0.03.

With C13G C18A C23U, the self-cleavage came out at 0.07.

Take C13U A16U C23U A25G C31A: the self-cleavage is 0.06.

With C13U A24C C46G, the self-cleavage worked out at 0.02.

Turning to C13G A14U G22A, the self-cleavage is 0.04.

As for C13A G27U C31A, the self-cleavage was 0.05.

For C13G C23U C37U, the self-cleavage was found to be 0.2.

In the case of C13U A39C G40C, the self-cleavage was 0.05.

Regarding C13G U28G C31U, the self-cleavage was 0.07.

As to C13A U34C U38C, the self-cleavage was found to be 0.06.

C13G G22C G33A C46A: the self-cleavage was 0.02.

Take C13G C23G G36A C37A C45U: the self-cleavage came to 0.07.

Regarding C13U A14C C31A A39G G44C, the self-cleavage was 0.03.

Regarding C13G U28C G29A C46G, the self-cleavage was found to be 0.11.

With C13A G27C C46A, the self-cleavage was found to be 0.12.

With C13G C18U G21A C23U G33U, the self-cleavage amounted to 0.01.

C13G A26G C37U G44A: the self-cleavage turned out to be 0.09.

Take C13G G27U U34C: the self-cleavage was found to be 0.05.

With C13G G17C G27A A39G, the self-cleavage is 0.

C13G U20A G22C A24U G30A: the self-cleavage turned out to be 0.1.

C13U A14U G35U G36A: the self-cleavage was 0.11.

For the variant C13U C15U G19C A26U G40C, the self-cleavage was found to be 0.04.

For C13G A14C G17U U32A, the self-cleavage was 0.75.

For C13G A14U U20C G30U C42G C46A, the self-cleavage stood at 0.02.

As for C13U C15U A16C, the self-cleavage worked out at 0.28.

C13G G17U G27U: the self-cleavage was found to be 0.12.

Take C13G A14U C37A C46G: the self-cleavage was 0.05.

With C13A G30C U34G, the self-cleavage is 0.01.

Turning to C13A G27A G33A U38A, the self-cleavage was determined as 0.04.

For C13G G21C G44A, the self-cleavage is 0.05.

Consider C13G G27A C42G, for which the self-cleavage was determined as 0.06.

Take C13G U32G G33A: the self-cleavage is 0.05.

C13A G19U U34A: the self-cleavage was 0.06.

The record behind these values is the RNAGym collection of RNA variant scans (doi:10.7554/elife.90254).
